Results: PubChem BioAssay AID485294 (National Center for Advancing Translational Sciences (NCATS), 2010)
Out of some 370,000 compounds screened, about 150 (0.041%) were called active. Inconclusive means that the source gave no clear call. Such entries were picked first, then a sample of the others. Calls follow the shape of the dose curve; as a rule, active = well fitted inhibition curve with a large enough effect; inconclusive = small, poorly fitted or top-dose-only effect; inactive = flat fitted curve, though single readings scatter. No potency is given beside an inconclusive call; the fits are too rough.

target: Beta-lactamase (Escherichia coli (strain K12)) (UniProt P00811); assay: qHTS Inhibitors of AmpC Beta-Lactamase (assay with detergent); conditions: AmpC hydrolysis of nitrocefin, absorbance 480 nm, 0.01% Triton; activity change, negative = inhibition: at 114 µM (top of the series); also: nearly all actives have a fitted effect of over 25% in size;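 as to activity change, negative = inhibition: 0% = no-compound wells and -100% = no-enzyme wells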
UniProt P00811, sequence (P00811 whole entry, looked up): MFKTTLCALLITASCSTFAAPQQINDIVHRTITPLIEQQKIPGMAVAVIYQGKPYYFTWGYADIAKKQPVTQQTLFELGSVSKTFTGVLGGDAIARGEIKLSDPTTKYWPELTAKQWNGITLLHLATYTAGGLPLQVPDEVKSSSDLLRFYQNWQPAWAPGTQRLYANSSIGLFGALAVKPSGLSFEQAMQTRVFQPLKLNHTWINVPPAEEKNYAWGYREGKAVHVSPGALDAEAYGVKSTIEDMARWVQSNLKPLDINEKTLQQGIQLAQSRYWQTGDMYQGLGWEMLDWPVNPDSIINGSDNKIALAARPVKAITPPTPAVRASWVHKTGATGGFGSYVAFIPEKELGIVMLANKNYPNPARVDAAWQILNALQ
Procedure, shortened: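 20 mM phosphate pH 7.0 + 0.01% (detergent screen) or 0.0001% Triton X-100; 5.3 nM AmpC reagent; cpd preinc 15 min RT; nitrocefin (800 uM stock) to start; A480 q20 s × 4 min; Activity was normalised to no-enzyme and no-compound control wells.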
Potency is read from the fitted curve at half-maximal effect; tags tell the direction and shape of the fitted curve.

Question: With `CCOc1ccc(CCNC(=O)COC(=O)c2ccc3c(c2)OCCO3)cc1OCC` as the compound, how does the Potency read?
Answer: inconclusive [inhibitor, partial curve, poor fit]

Question: For `CC(C)[C@@H](C(=O)O)N(Cc1cccc(CN([C@H](C(=O)O)C(C)C)S(C)(=O)=O)c1)S(C)(=O)=O`, which Potency is on record?
Answer: inconclusive [inhibitor, full curve, poor fit]

Question: With `Nc1c(C(=O)Nc2ccc(Cl)c(Cl)c2)sc2nc(-c3cccnc3)ccc12` as the compound, how does the Potency read?
Answer: inconclusive [inhibitor, full curve, poor fit]

Question: `CC(C)CN(C(=O)c1ccc([N+](=O)[O-])s1)c1c(N)n(Cc2ccccc2)c(=O)[nH]c1=O` was tested. Which “activity change, negative = inhibition” value did it give?
Answer: inactive: -9.45%

Question: `CCOC(=O)N1CCC(N(CCOC)C(=O)Nc2ccc(CC)cc2)CC1` was tested. Which “activity change, negative = inhibition” value did it give?
Answer: inactive: -9.17%

Question: Which “activity change, negative = inhibition” value does the source give for `COCCCN(Cc1ccco1)C(=O)Cn1ncc2c(=O)oc3ccc(C)cc3c21` here?
Answer: inactive: -0.5%

Question: Which Potency does the source give for `COc1cc2c(cc1OC)C(c1cccnc1)CC(=O)N2` (stereo unspecified) here?
Answer: inconclusive [inhibitor, full curve, poor fit]

Question: For `O=C(Nc1ccc(Nc2ccccc2)cc1)c1ccc(F)cc1`, which “activity change, negative = inhibition” value is on record?
Answer: inactive: 3.78%

Question: With `Fc1ccc(Nc2ccc(-c3ccc(F)cc3)nn2)cc1` as the compound, how does the “activity change, negative = inhibition” value read?
Answer: inactive: 6.74%

Question: With `CCCCN(Cc1cc2ccccc2[nH]c1=O)C(=O)c1cccc(Cl)c1` as the compound, how does the “activity change, negative = inhibition” value read?
Answer: inactive: 11.5%

Question: `COc1ccc(Cc2nn[nH]n2)cc1` was tested. Which “activity change, negative = inhibition” value did it give?
Answer: inactive: -0.338%

Question: For `CC1CCN(CC(O)COc2ccc(OCC(O)CN3CCC(C)CC3)cc2)CC1` (stereo unspecified), which Potency is on record?
Answer: inconclusive [inhibitor, full curve, poor fit]

Question: With `COc1cc(C2N(c3ccc(F)cc3)C(=O)C3CCCN32)cc(OC)c1OC` (stereo unspecified) as the compound, how does the Potency read?
Answer: inconclusive [inhibitor, partial curve]

Question: For `CCOc1ccc(N=Nc2c(C)[nH]n(-c3ccccc3)c2=O)cc1`, which “activity change, negative = inhibition” value is on record?
Answer: inactive: -17%

Question: How did the “activity change, negative = inhibition” value turn out when `COc1ccc(C(=O)Nc2cc3c4c(c2)CC(=O)N4CCC3)c(OC)c1` was run?
Answer: inactive: -5.54%

Question: `CC1CCCCC1NS(=O)(=O)c1ccc(-n2cnnn2)cc1` (stereo unspecified) was tested. Which Potency did it give?
Answer: inconclusive [inhibitor, full curve, poor fit]

Question: With `O=C(CNS(=O)(=O)c1ccc(Br)cc1Cl)OCC(=O)c1ccc[nH]1` as the compound, how does the Potency read?
Answer: inconclusive [inhibitor, full curve, poor fit]

Question: `CCCn1c(SCC(O)c2ccccc2)nc2ccccc21` (stereo unspecified) was tested. Which “activity change, negative = inhibition” value did it give?
Answer: inactive: 11.5%

Question: For `CC(/C=C/c1ccccc1F)=N\NC(=O)C(C)C`, which “activity change, negative = inhibition” value is on record?
Answer: inactive: -12.8%

Question: How did the Potency turn out when `O=C(CNC(=O)c1cccc(N2C(=O)c3ccccc3C2=O)c1)Nc1ccc(F)c(F)c1` was run?
Answer: inconclusive [inhibitor, single point]

Question: How did the Potency turn out when `c1ccc(Cc2nnc3sc(Nc4ccccc4)nn23)cc1` was run?
Answer: inconclusive [inhibitor, full curve, poor fit]

Question: For `CN1CCN(CCCN2c3ccccc3Sc3ccc(S(=O)(=O)N(C)C)cc32)CC1`, which Potency is on record?
Answer: inconclusive [inhibitor, full curve, poor fit]

Question: `CN(C)c1ccc(-c2nc(-c3cccs3)c(-c3cccs3)[nH]2)cc1` was tested. Which Potency did it give?
Answer: inconclusive [inhibitor, single point]

Question: Which Potency does the source give for `O=C1CC(NS(=O)(=O)c2ccc(F)cc2)CN1c1ccc2c(c1)OCCO2` (stereo unspecified) here?
Answer: inconclusive [inhibitor, full curve, poor fit]

Question: `Cc1ccc2nc(-c3ccccc3)cc(C(=O)NCC(c3ccco3)N(C)C)c2c1` (stereo unspecified) was tested. Which “activity change, negative = inhibition” value did it give?
Answer: inactive: -14.4%

Question: Which Potency does the source give for `OC1(C#CCN2CCOCC2)CCCCC1` here?
Answer: inconclusive [inhibitor, partial curve]

Question: For `CN(C)S(=O)(=O)c1cccc(NC(=O)/C=C/c2ccc(S(=O)(=O)N3CCOCC3)cc2)c1`, which Potency is on record?
Answer: inconclusive [inhibitor, partial curve, poor fit]

Question: With `COc1ccc(Nc2nnc(SCC(=O)N3CC(=O)Nc4ccccc43)s2)cc1` as the compound, how does the “activity change, negative = inhibition” value read?
Answer: inactive: 5.29%

Question: For `CCc1ccc(NC(=O)[C@H](CSCc2ccccc2)N2Cc3ccccc3C2=O)cc1`, which Potency is on record?
Answer: inconclusive [inhibitor, single point]

Question: Which Potency does the source give for `Cc1ccc(S(=O)(=O)NCCn2nc(C)cc2C)cc1` here?
Answer: inconclusive [inhibitor, full curve, poor fit]

Question: How did the Potency turn out when `O=C(O)c1ccc(CNCc2c(Cl)cccc2Cl)cc1` was run?
Answer: inconclusive [inhibitor, full curve]

Question: How did the “activity change, negative = inhibition” value turn out when `COc1cccc(-n2nnnc2S(C)(=O)=O)c1` was run?
Answer: inactive: -0.387%

Question: Which “activity change, negative = inhibition” value does the source give for `CCC(=O)N1CCc2cc(S(=O)(=O)NCCC(=O)NCc3ccc(C)cc3)ccc21` here?
Answer: inactive: -1.82%

Question: For `O=S(=O)(c1ccc(NC(=S)NCCC(c2ccccc2)c2ccccc2)cc1)N1CCOCC1`, which Potency is on record?
Answer: inconclusive [inhibitor, full curve, poor fit]

Question: How did the Potency turn out when `NC(=O)CC(NC(=O)c1cccc(Br)c1)c1ccc(NC2CCC2)c([N+](=O)[O-])c1` (stereo unspecified) was run?
Answer: inconclusive [inhibitor, partial curve]

Question: With `COc1cc(CN2CCCC(N3CCc4ccccc4C3)C2)c(Cl)cc1O` (stereo unspecified) as the compound, how does the “activity change, negative = inhibition” value read?
Answer: inactive: 2.25%

Question: How did the Potency turn out when `COc1ccc(NC(=O)c2ccccc2Oc2ccccc2)cc1` was run?
Answer: inconclusive [inhibitor, single point]

Question: For `CCc1ccc2[nH]c(=O)c(CN(CCCN3CCOCC3)C(=O)Nc3ccccc3)cc2c1`, which Potency is on record?
Answer: inconclusive [inhibitor, full curve, poor fit]

Question: How did the “activity change, negative = inhibition” value turn out when `CCOC(=O)c1c(NC(=O)CCCOc2ccc(C(C)(C)C)cc2)sc2c1CCCC2` was run?
Answer: inactive: -0.0678%

Question: With `O=C1CSC(c2cccnc2)N1c1ccccc1` (stereo unspecified) as the compound, how does the “activity change, negative = inhibition” value read?
Answer: inactive: 0.122%

Question: Which “activity change, negative = inhibition” value does the source give for `COc1ccc(OC)c(NC(=O)c2cnc(N3CCCCC3)c3ccccc23)c1` here?
Answer: inactive: 2.35%

Question: Which “activity change, negative = inhibition” value does the source give for `CCOc1ccc(-c2cc(NC(=O)Nc3ccc(Cl)cc3)c(C(=O)OC)s2)cc1` here?
Answer: inactive: 20.1%

Question: Which Potency does the source give for `CCCC1CC(CCc2ccccc2)OS(=O)(=O)N1` (stereo unspecified) here?
Answer: inconclusive [inhibitor, partial curve]

Question: With `COc1cc(OC)cc(C(=O)Nn2cc(C(=O)Nc3ccc(F)cc3F)c3ccccc3c2=O)c1` as the compound, how does the Potency read?
Answer: inconclusive [inhibitor, full curve, poor fit]

Question: How did the Potency turn out when `COc1ccccc1CCC(=O)Nc1cccc(S(=O)(=O)N2CCCCCC2)c1` was run?
Answer: inconclusive [inhibitor, partial curve, poor fit]

Question: `CCOC(=O)N1CCN(c2ncnc3nc[nH]c23)CC1` was tested. Which Potency did it give?
Answer: inconclusive [inhibitor, full curve]
